# Source: PubChem BioAssay AID1479 (National Center for Advancing Translational Sciences (NCATS), 2009)
# The whole screen tested about 280,000 compounds, of which about 820 (0.29%) were called active. Inconclusive results, whose numbers are uncertain, are shown with a selection of clear calls. Calls follow the shape of the dose curve; as a rule, active = well fitted curve in either direction with a large enough effect; inconclusive = small, poorly fitted or top-dose-only effect; inactive = flat fitted curve, though single readings scatter. Potencies of inconclusive entries are left out as doubtful fits. Some structures have more than one record in an assay (separate samples or runs), and their calls can disagree.
# Experiment: Total Fluorescence Counterscreen for Inhibitors of the Interaction of Thyroid Hormone Receptor and Steroid Receptor Coregulator 2
# Details: TRb/SRC2 Texas Red total fluorescence interference; series mostly up to 106 µM; fluorescence change, negative = quenching: at the top concentration
# Outline: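 Flags fluorescent or light-absorbing compounds by total fluorescence, S + 2P, at 555 nm excitation and 632 nm emission. Mixture: 20 nM Texas Red SRC2 peptide, 0.6 uM human TRb LBD, 1 uM T3, 5% DMSO; compound exposure 5 h at ambient temperature.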
# % is scaled to controls: 0 for no effect and ±100 for the full control effect; potency is read from the fitted curve at half-maximal effect; tags tell the direction and shape of the fitted curve or compound fluorescence and quenching.
Compound,Potency,"fluorescence change, negative = quenching"
CC[n+]1c(-c2ccccc2)c2cc(N)ccc2c2ccc(N)cc21,active: 44.7 µM [fluorescent],
Cc1cccc(C2=NN(c3ccc(Br)cc3)[C@@H](C(=O)N3CCOC3=O)[C@@H]2c2ccc([N+](=O)[O-])cc2)c1,"inconclusive [falling, full curve, poor fit]",
Cc1cc2c(C(C)C)c(O)c(O)c(C=O)c2c(O)c1-c1c(C)cc2c(C(C)C)c(O)c(O)c(C=O)c2c1O,active: 31.6 µM [quencher] [middle of 7 runs],
COc1ccc(-n2cnc3cc(C(=O)N4CCC5(CC4)OCCO5)ccc32)cc1,,inactive: -0.491%
COc1ccc(NC(=O)c2ccco2)cc1NC(=O)COc1cc(C)cc(C)c1,"inconclusive [falling, full curve, poor fit]",
Cc1c(Cl)cccc1NC(=S)N1CC2CC(C1)c1cccc(=O)n1C2 (centres undefined),"inconclusive [falling, partial curve, poor fit]",
Nc1c(Cl)c(F)nc(OCC(=O)O)c1Cl,,inactive: -1.62% [at 201 µM]
CCN(CC)C(=O)c1ccc2c(c1)C1C(Cl)C(Sc3ccccc3[N+](=O)[O-])CC1C(C(=O)O)N2 (centres undefined),"inconclusive [fluorescent, partial curve]",
O=C(O)C(Br)Br,"inconclusive [fluorescent, partial curve]",
O=S1(=O)N(CCN2CC=C(c3c[nH]c4cc(F)ccc34)CC2)c2cccc3c2N1CCC3,"inconclusive [falling, full curve, poor fit]",
CN1CCN(Cc2nc3ccccc3n2C)CC1,,inactive: 1.33%
COc1ccc(C2Oc3c(I)c(OC)cc(OC)c3CC2O)cc1OC (centres undefined),"inconclusive [quencher, partial curve]",
CC(C)(c1ccccc1)c1cc(-n2nc3ccccc3n2)c(O)c(C(C)(C)c2ccccc2)c1,,inactive: -3.69% [at 201 µM]
Cc1ccc(C)c(N2CCN(C(=O)CCS(=O)(=O)c3ccc4c(c3)oc(=O)n4C)CC2)c1,"inconclusive [falling, full curve, poor fit]",
CCOC(=O)c1c(-n2c(C)cc(C=C3C(=O)NC(=O)NC3=O)c2C)sc2c1CCCC2,,inactive: 4.14%
CCCSc1nc2ccccc2c(=O)n1-c1ccccc1OC,,inactive: -21.6%
CCC1COC(Cn2cncn2)(c2ccc(Cl)cc2Cl)O1 (centres undefined),"inconclusive [quencher, partial curve]",
N/C(=N\N=C/c1ccc(-c2ccc(O)c(C(=O)O)c2)o1)N[N+](=O)[O-],"inconclusive [quencher, partial curve]",
NC1C=CC=C(C(=O)O)C1 (centres undefined),"inconclusive [quencher, partial curve]",
c1ccc2c(c1)CC1CNCc3cccc(c31)S2 (centres undefined),,inactive: 0.336%

Compound,Potency,"fluorescence change, negative = quenching"
CCN(CC)c1ccc(C=C2C(=O)NC(=S)NC2=O)cc1,,inactive: 2.06%
CCC(=O)Oc1ccc2c(c1)CCC1C2CC[C@]2(C)C(OC(=O)CC)CCC12 (some centres undefined),"inconclusive [falling, full curve, poor fit]",
COc1ccc(NC(=O)c2c(C)nn(Cc3ccccc3Cl)c2Cl)cc1Cl,"inconclusive [falling, full curve, poor fit]",
O=C(COc1ccccc1Cl)Nc1ccc2nc(SCC(=O)N3CCCC3)sc2c1,"inconclusive [falling, full curve, poor fit]",
CC[C@@]1(O)C(=O)OCc2c1cc1n(c2=O)-c2cc3ccccc3nc2C1,"inconclusive [quencher, full curve]",
CCCCCSc1cc(O)c(C(CNC)C(C)C)cc1OC (centres undefined),,inactive: -0.211%
O=c1ccn([C@@H]2O[C@H](COP(=O)(O)OP(=O)(O)O)[C@@H](O)[C@H]2O)c(=O)[nH]1,"inconclusive [quencher, partial curve]",
CCOc1ccc(NCc2cccn2-c2nnc(N3CCC(C(=O)NCc4ccc(C)cc4)CC3)s2)cc1,"inconclusive [quencher, full curve]",
CN1C[C@H](C(=O)N[C@]2(C)O[C@@]3(O)[C@@H]4CCCN4C(=O)[C@H](Cc4ccccc4)N3C2=O)C=C2c3cccc4[nH]cc(c34)C[C@H]21,"inconclusive [fluorescent, partial curve]",
Cc1ccc(N)c(N)c1,"inconclusive [quencher, partial curve]",
CC(C)(C)C(=O)[C@@H](Oc1ccc(Cl)cc1)n1cncn1,,inactive: -1.29% [at 201 µM]
O=C1CCc2cccc3c2N1CC3,"inconclusive [quencher, full curve]",
Fc1ccc(N2CCN(c3ncnc4c3nc3n4CCCCC3)CC2)cc1,"inconclusive [quencher, full curve]",
CC(=O)Nc1nnc(S(N)(=O)=O)s1,"inconclusive [quencher, full curve]",
CC[N+]12CCC(CC1)C(=C(c1ccccc1)c1ccccc1)C2,"inconclusive [falling, full curve, poor fit]",
O=c1cc(-c2ccc(O)c(O)c2)oc2c(C3O[C@H](CO)[C@@H](O)[C@H](O)[C@H]3O)c(O)cc(O)c12 (some centres undefined),"inconclusive [quencher, partial curve]",
COc1cc2c(cc1OC)-c1c3c(cc4c1[C@@H](C2)N(C)CC4)OCO3,,inactive: -5.47%
O=C1/C(=C/c2cccc([N+](=O)[O-])c2)N2CCC1CC2,"inconclusive [falling, full curve, poor fit]",
Cn1c(=O)n(C)c2cc(CNCCc3ccccc3F)ccc21,"inconclusive [falling, partial curve, poor fit]",
